{"source": "the RNAGym collection of RNA variant scans (doi:10.7554/elife.90254)", "parents": {"B1": {"name": "OR4K15 (parent)", "chain": "GUUAACGGUCAUAGGCCAUGGAAACUAGGAGCACCAUUUCGCUGCCAGUGAAGAAAUGAACAAAGAAAAUCUGGGCCAGGCAGGCAUCAAAAGAAAUAGUCUUGCGCUCAACCAGAAAGUCUGUAAUCAUUUUAAGGGUA"}}, "note": "The source gives no read counts; variants with many changes may rest on few reads."}
{"variants_of": "B1", "assay": "self-cleavage, relative activity (ratio to wild type); higher = more cleavage; in vitro, sequencing; the parent is a self-cleaving ribozyme"}
{"variant": "GUGAACGGUCAUAGGCCAUGGAGUCUAGGAGCACCAUUUCGCUGCCAGUGAAGAAAUGAACAAAGAAAAUCUGGGCCAGGCAGGCAUCAAAAGAAAUAGUCUUGCGCUCAACCAGAAAGUUUGUAAUCAUUCUAAGGGUA", "note": "[U3G A23G A24U C121U U132C]", "self-cleavage": 0.77}
{"variant": "GUAAACGGUCAUAGGCCAUGGAAACUAGGAGCACCAUUUCGCUGCCAGUGAAGAAAUGAACAAAGAAAAUCUGGGCAAGGCAGGCAUCAAAAGAAAUAGUCUUGCGCUCAACCAGAAAGUCUGUAAUCAUUCUAAGGGUA", "note": "[U3A C77A U132C]", "self-cleavage": 0.47}
{"variant": "GUUAACGGUCAUAGGCCAUGGAAACUAGGAGCGCCAUUUCGCUGCCAGUGAAGAAAUGAACAAAGAAGAUCUGGGCCAGGCAGGCAUCAAAAGAAAUAGUCUUGCGCUCAACCAGAAAGCCUGUAAUCAUUUUAAGGGUA", "note": "[A33G A68G U120C]", "self-cleavage": 0.23}
{"variant": "GUUAACGGUCAUAGGCCAUGGGAACUAGGAGCACCAUUCCGCCGCCAGUGAAGAAAUGAACUAAGAAAAUCUGGGCCAGGCAGGCAUCAAAAGAAAUAGUCUUGCGCUCAACCAGAAAGUCUGUAAUCAUUUUAAGGGUA", "note": "[A22G U39C U43C A62U]", "self-cleavage": 0.74}
{"variant": "GUUAACGGUCAUAGGCCAUGGAAACUAGGAGCACCAUUUCGCUGCCGGUGAAGAAAUGAACAAAGAAAAUCUGGGCCAGGCAGGCAUCAAAAGAAAUAGUCUCGUGCUCAACCAGAAAGUCUGUAAUCAUCUUAAGGGUA", "note": "[A47G U103C C105U U131C]", "self-cleavage": 0}
{"variant": "GUUAACGGUCAUAGGCCAUGGAAACUAGGAGCGCCAUUUCGCUGCCUGUGAAAAAAUGAACAAAGUAAAUCUGGGCCAGGCAGGCACCAAAAGAAAUAGUCUUGCGCUCAACCAGAAAGUCUGUAAUCAUUUUAAGGGUA", "note": "[A33G A47U G53A A66U U87C]", "self-cleavage": 0.34}
{"variant": "GUUAACGGUCGUAGGCCAUGGAAACUAGGAGCACCAUUUCGCUGCCAGUGAAGAAAUGAACAAAGAAAAUCUGGGCCAGGCAGGCAUCAAAAGAAAUUGUCUUGCGCUCAACCAGAAAGUCUGUAAUCAUUUUAAGGGCA", "note": "[A11G A98U U139C]", "self-cleavage": 1.68}
{"variant": "GUUAACGGUCGUAGGCCAUGGAAACUAGGAGCACCAUUUCGCUGCCAGUGAAGAAAUGAACAAAGAAAAUCUGGGCCAGGCAGGCAUCAAAAGAAGUAGUCUUGCGCCCAACCAGAAAAUCUGUAGUCAUUUUAAGGGUA", "note": "[A11G A96G U108C G119A A126G]", "self-cleavage": 0.01}
{"variant": "GUUAACGGUCAUAGGCCAUGGAAACUAGGAGCCCCAUUUCGCUGCCAGUGAAGAAAUGAACAGAGAAAAUCUGGGCCAGGCAGGCAUCGAAAGAAAUAGUCUUGCGCUCAACCAGAAAGUCUGAAAUCAUUUUAAGGGUA", "note": "[A33C A63G A89G U124A]", "self-cleavage": 0.51}
{"variant": "GUUAACGGUCAUAGGCCAUGGAAACUAGGAGCACCAUUUCGCUGCCAGUGAGGAAAUGAACAAAGAAAAUCUGGGCCAGGCAGGCAUCAAAAGAAAUAGUCUUGCGCUCAACCAGAAAGUCUGUAAGCACUUUAAGGGUA", "note": "[A52G U127G U130C]", "self-cleavage": 0.98}
{"variant": "GUUAACGGUCAUAGGCCAUGGAAACUAGGAGCACCAUUUCGCUGCCGGUGAAGAAAUGAACAAAGAAAAUCUGGGCCAGGCAGGCAUCAGAAGAAAUAGUCUUGCGCUCAACCAGAAAGUCUAUAAUCAUUUUAAGGGUA", "note": "[A47G A90G G123A]", "self-cleavage": 0.78}
{"variant": "GUUAACGGUCAUAGGCCAUGGAAACUAGGAGCACUAUUUCGCUGCCAGUGAGGAAAUGGACAAAGAAAAUCUGGGCCAGGCAGGCAUCAAAAGAAAUAGUCUUGCGCUCAGCCAGAAAGUCUGUAACCAUUAUAAGGGUA", "note": "[C35U A52G A59G A111G U127C U132A]", "self-cleavage": 0.02}
{"variant": "GUUAACGGUCAUAGGCCAUGGAAACUAGGAGCACCAUUUCGCUGCCAGUGAAGGAAUGAACAAAGAAAAUCUGGGCCAGGCAGGCAUCAAAAGAAAUGGUCUUGCGCUCAACCAGAAAGUCUGUUGUCAUUUUAAGGGUA", "note": "[A54G A98G A125U A126G]", "self-cleavage": 0.26}
{"variant": "GUUAACGGUCAUAGGCCAUGGAAACUACGAGCGCCAUAUCGCUGCCAGUGAAGAAAUGAACAAAGAAAAUCUGGGCCAGGCAGGCAUCAAAAGAAAUAGUCUUGCGCUCAACCAGAAAGUCUGUAAUCAUUUUAAGGGUA", "note": "[G28C A33G U38A]", "self-cleavage": 0.52}
{"variant": "GUUAACGGUCAUAGGCCAUGGAAACUAGGAACACCAUUUCGCUGCCAGUGAAGAAAUGAACAAAGAAAAUCUGGCCCAGGCAGGCACCAAAAGAAAUAGUCUUGCGCUCAACCAGAAAGUCUGUAAUCAUUUUAAGGGUA", "note": "[G31A G75C U87C]", "self-cleavage": 0.22}
{"variant": "GUUAACGGCCAUAGGCCAUGGAAACUAGGAGCACCAUUUCGCUGCCAGUGAAGAAAUGAACAAAGAAAAUCUGGGCCAGGCAGGCAUCAAGAGAAAUAGUCCUGCGCUCAACCAGAAAGUCUGUAAUUAUUUUAAGGGUA", "note": "[U9C A91G U102C C128U]", "self-cleavage": 1.09}
{"variant": "GUUAACGGUCAUAGGCCAUGGAGACUAGGAGCACCAUUUCGCUGCCAGUGAAGAAAUGAGCAAAGAAAAUCUGGGCCAGGCAGGCAUCAAAAGAAAUGGUCUUGCGCUCAACCAGGAAGUCUGUAAUCAUUUUAAGGGUA", "note": "[A23G A60G A98G A116G]", "self-cleavage": 0.08}
{"variant": "GUUAACGGUCAUAGGCCGUGGAAACUAGGAGCACCAUUUCGCUGCCAGUGAAGAAAUGAACAAAGAAAAUCUGGGCCAGGCAGGCAUCAAAAGAAAUAGUCUCGCGCUCAACCAGAAAGUCUGUAAUCAUUAUAAGGGUA", "note": "[A18G U103C U132A]", "self-cleavage": 1.38}
{"variant": "GUUAACGGUCAUAGGCCAUGGAAACUAGGAGCACCAUUUCGCUGCCAGUGAAGAAAUGAACGAAGAAAACCUGGGCCAGGCAGGCAUCAAAAGAAAUAGUCUUGCGCUCAACCAGUAGGUCUGUAAUCAUUUUAAGGGUA", "note": "[A62G U70C A116U A118G]", "self-cleavage": 0.03}
{"variant": "GUUAACGGUCAUAGGCCAUGGAAACUAGGAGCACCAUUUCGCUGCCAGCGAAGAAAUGAACAAAGAAAAUCUGGGCCUGGCAGGCAUCAGAAGAAAUAGUCUUGCGCUCAACCAGAAAGUCUGUAAUCAUUUUAAGGGUA", "note": "[U49C A78U A90G]", "self-cleavage": 0.27}
{"variant": "GUUAACGGUCAUAGGCCAUGGAAACUAGGAGCACUAUUUCGCUGCCAGUGAAGAAAUGAACAAAGAAAGUCUGGGCCAGGCAGGCAUCAAAAGAAAUAGCCUUGCGCUCAGCCAGAAAGUCUGUAAUCAUUUUAGGGGUA", "note": "[C35U A69G U100C A111G A135G]", "self-cleavage": 0}
